Measured values as given in the BET-seq Pho4 binding data (Le et al. 2018).
Some of the results follow. Values were computed here from the reads of four pooled replicates and scatter widely.

Target: T1, Pho4 (S. cerevisiae) (UniProt P07270)
T1 sequence: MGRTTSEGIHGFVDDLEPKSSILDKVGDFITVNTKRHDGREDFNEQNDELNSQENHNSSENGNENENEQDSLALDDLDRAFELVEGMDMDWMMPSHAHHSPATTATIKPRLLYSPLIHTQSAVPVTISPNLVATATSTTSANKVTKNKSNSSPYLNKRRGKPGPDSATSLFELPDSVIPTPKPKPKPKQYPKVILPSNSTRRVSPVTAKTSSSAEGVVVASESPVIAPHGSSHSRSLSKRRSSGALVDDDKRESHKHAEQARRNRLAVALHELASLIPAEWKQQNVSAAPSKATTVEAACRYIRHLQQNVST
Assay: relative binding free energy (BET-seq); higher = weaker binding
Conditions: reference: library average

Sequence	relative binding free energy
TGGGTCACGTGTTCTG	0.19 kcal/mol
TTTTTCACGTGGTGAG	0.2 kcal/mol
AATGACACGTGGTGGG	0.02 kcal/mol
GTGAACACGTGGGGTA	-0.22 kcal/mol
TTGGCCACGTGCGTGT	-0.23 kcal/mol
GTTGTCACGTGATTAG	0.21 kcal/mol
CTATTCACGTGATTTA	0.35 kcal/mol
TTGATCACGTGCATTT	0.23 kcal/mol
AGGATCACGTGTTCGT	0.07 kcal/mol
TTAGTCACGTGAGGAC	0.29 kcal/mol
CGTCGCACGTGATGTG	0.15 kcal/mol
ATAGGCACGTGGCCGG	-0.17 kcal/mol
AGTGACACGTGGAGGT	-0.09 kcal/mol
AGAAGCACGTGGGTGA	-0.23 kcal/mol
GTTTGCACGTGTGGTT	0.18 kcal/mol
TTGTGCACGTGGGCAG	-0.17 kcal/mol
GGATTCACGTGGGCGG	0.32 kcal/mol
GGCGGCACGTGGAGAG	0.11 kcal/mol
TTTGACACGTGGACTT	-0.03 kcal/mol
AGAAGCACGTGGACGG	0.04 kcal/mol
AGAAACACGTGGTGGT	-0.05 kcal/mol

Sequence	relative binding free energy
TTAGACACGTGTGAAT	0.06 kcal/mol
TTATGCACGTGGAGAG	-0.03 kcal/mol
GGGTACACGTGTCTTG	0.11 kcal/mol
AAGGCCACGTGAGTGG	0.04 kcal/mol
CAGTCCACGTGGTGGG	-0.01 kcal/mol
TAAATCACGTGAAGGT	0.3 kcal/mol
CTAGTCACGTGGATGT	0.23 kcal/mol
ATGTGCACGTGTGTCA	-0.06 kcal/mol
TTTCACACGTGGGAAT	0.17 kcal/mol
GGAGCCACGTGAGGGA	0.17 kcal/mol
TAGTCCACGTGCGGGG	0.13 kcal/mol
GGGTGCACGTGAAATG	0.25 kcal/mol
ACTGGCACGTGGCGAG	-0.18 kcal/mol
TAGTACACGTGTGGAA	0.14 kcal/mol
CGGGTCACGTGCTATT	0.21 kcal/mol
TAGTTCACGTGCAGGA	0.2 kcal/mol
ATAGGCACGTGTAGTG	-0.04 kcal/mol
TGAGGCACGTGTGATA	-0.02 kcal/mol
TAGTTCACGTGTCGAG	0.32 kcal/mol
TAAATCACGTGTTGTG	0.15 kcal/mol
GGTTGCACGTGAAACG	0.25 kcal/mol

Sequence	relative binding free energy
AGCTTCACGTGGGGGC	0.15 kcal/mol
ATTGTCACGTGTGCCT	0.02 kcal/mol
TAGGACACGTGAAGTT	0.34 kcal/mol
AATGGCACGTGCTTGA	-0.11 kcal/mol
TTGTCCACGTGATGGA	0.23 kcal/mol
AACGGCACGTGCAGGG	-0.13 kcal/mol
GTTTGCACGTGATCTT	0.15 kcal/mol
GGCAGCACGTGGCTGG	-0.16 kcal/mol
TGCTGCACGTGGGTTC	-0.09 kcal/mol
GAGATCACGTGATTTA	0.47 kcal/mol
GGGTGCACGTGTTGCA	0.05 kcal/mol
GGTGACACGTGAGGGT	0.22 kcal/mol
GATTTCACGTGGCGGT	0.33 kcal/mol
AGTAACACGTGTATAG	0.04 kcal/mol
TGGTCCACGTGGGTAG	-0.07 kcal/mol
GGTGGCACGTGATTTA	0.18 kcal/mol
TAGGGCACGTGATAGT	-0.07 kcal/mol
CTGGTCACGTGTTAGA	0.11 kcal/mol
GAGAGCACGTGGGGGC	-0.19 kcal/mol
CGATTCACGTGGCGGG	0.2 kcal/mol
CGTTTCACGTGATGAA	0.25 kcal/mol
